Literature values, collected in PMC11006913.
Some of the results follow.

Legend:
Details in all cases: PBM; conditions not shown; double strand, one strand shown; scale: upbm affinity estimate (log intensity, higher = more binding, comparable within an allelic series)
[1] = biological target: HOXD13 I297V (Homo sapiens) (UniProt P35453)
[2] = biological target: HOXD13 I322L (Homo sapiens) (UniProt P35453)
[3] = biological target: HOXD13 N298S (Homo sapiens) (UniProt P35453)
[4] = biological target: HOXD13 Q325K (Homo sapiens) (UniProt P35453)
[5] = biological target: HOXD13 Q325R (Homo sapiens) (UniProt P35453)
[6] = biological target: HOXD13 R306W (Homo sapiens) (UniProt P35453)
[7] = biological target: HOXD13 S316C (Homo sapiens) (UniProt P35453)

Row | Sequence | binding signal [1] | binding signal [2] | binding signal [3] | binding signal [4] | binding signal [5] | binding signal [6] | binding signal [7]
1 | CCATAAAC [8-mer CCATAAAC] | 12.6 | 11.4 | 12.8 | 10.4 | 11 | 11.7 | 12.5
2 | ATATAAAA [8-mer ATATAAAA] | 12.4 | 11.2 | 12.6 | 12.4 | 12.5 | 12 | 12.2
3 | CTTTACGA [8-mer CTTTACGA] | 12.1 | 12.2 | 12.4 | 10.2 | 10.8 | 11.1 | 12
4 | CATTAATG [8-mer CATTAATG] | 12.2 | 11.4 | 12.4 | 11.6 | 11.6 | 11.4 | 12
5 | ATTTACAA [8-mer ATTTACAA] | 12.3 | 12.3 | 12.4 | 10.9 | 11.3 | 11.4 | 12.1
6 | GTTTACGA [8-mer GTTTACGA] | 12.6 | 12.7 | 12.8 | 10.4 | 11.1 | 11.6 | 12.6
7 | CGGACCCC [8-mer CGGACCCC] | 9.45 | 9.44 | 9.37 | 9.25 | 9.32 | 9.31 | 9.36
8 | ATTAACGA [8-mer ATTAACGA] | 12.3 | 12.3 | 12.5 | 11.1 | 11.4 | 11.4 | 12.1
9 | CCCCAGAG [8-mer CCCCAGAG] | 9.26 | 9.18 | 9.12 | 9.52 | 9.28 | 9.3 | 9.29
10 | CGGAGGGC [8-mer CGGAGGGC] | 9.49 | 9.43 | 9.39 | 9.45 | 9.47 | 9.51 | 9.46
11 | GCCCGGCC [8-mer GCCCGGCC] | 9.59 | 9.48 | 9.54 | 9.31 | 9.36 | 9.3 | 9.52
12 | GAGGAGCC [8-mer GAGGAGCC] | 9.57 | 9.51 | 9.57 | 9.29 | 9.36 | 9.53 | 9.6
13 | ATCATAAA [8-mer ATCATAAA] | 12.4 | 11.4 | 12.7 | 11 | 11.7 | 11.6 | 12.4
14 | GACCGAGC [8-mer GACCGAGC] | 9.43 | 9.53 | 9.48 | 9.44 | 9.42 | 9.43 | 9.54
15 | CCCCACCG [8-mer CCCCACCG] | 9.75 | 9.43 | 9.64 | 9.82 | 9.62 | 9.64 | 9.63
16 | TTTATAAA [8-mer TTTATAAA] | 11.6 | 10.9 | 11.7 | 12 | 11.3 | 11.3 | 11.4
17 | AGTTTATG [8-mer AGTTTATG] | 12.3 | 11.1 | 12.5 | 10.9 | 11.5 | 11.4 | 12.1
18 | CCACCGGG [8-mer CCACCGGG] | 9.5 | 9.43 | 9.47 | 9.67 | 9.45 | 9.46 | 9.54
19 | CCAGGGGC [8-mer CCAGGGGC] | 9.26 | 9.07 | 9.29 | 9.33 | 9.15 | 9.25 | 9.13
20 | ACCGTAAA [8-mer ACCGTAAA] | 11.9 | 12 | 12.1 | 10.4 | 10.7 | 10.8 | 11.7
21 | GGGGGGGA [8-mer GGGGGGGA] | 9.13 | 8.94 | 9.06 | 9.59 | 9.12 | 9.12 | 9.11
22 | AGCCTTGC [8-mer AGCCTTGC] | 9.53 | 9.59 | 9.47 | 9.63 | 9.32 | 9.48 | 9.49
23 | GCGAGAGC [8-mer GCGAGAGC] | 9.63 | 9.54 | 9.51 | 9.38 | 9.47 | 9.43 | 9.58
24 | GCAATAAA [8-mer GCAATAAA] | 12.9 | 11.4 | 13.1 | 11 | 12 | 12.1 | 12.8
25 | CCGACGCG [8-mer CCGACGCG] | 9.52 | 9.53 | 9.4 | 9.54 | 9.46 | 9.47 | 9.46
26 | CCTCCCAC [8-mer CCTCCCAC] | 9.31 | 9.42 | 9.4 | 9.5 | 9.55 | 9.6 | 9.48

Row | Sequence | binding signal [1] | binding signal [2] | binding signal [3] | binding signal [4] | binding signal [5] | binding signal [6] | binding signal [7]
27 | GTCATTAA [8-mer GTCATTAA] | 12.2 | 11.5 | 12.4 | 11.1 | 11.4 | 11.2 | 12.1
28 | AACTTAAT [8-mer AACTTAAT] | 11.2 | 10.7 | 11.3 | 11.1 | 11.2 | 10.8 | 11
29 | CTTGGCGC [8-mer CTTGGCGC] | 9.4 | 9.32 | 9.35 | 9.39 | 9.28 | 9.41 | 9.43
30 | GGATGGCC [8-mer GGATGGCC] | 9.62 | 9.35 | 9.52 | 9.36 | 9.31 | 9.37 | 9.48
31 | CTCGTAAA [8-mer CTCGTAAA] | 13.3 | 13.4 | 13.6 | 10.3 | 11.9 | 12.6 | 13.3
32 | CCCGTAAA [8-mer CCCGTAAA] | 12.3 | 12.3 | 12.4 | 9.95 | 10.4 | 11.1 | 12.1
33 | ATTTTATA [8-mer ATTTTATA] | 12.4 | 11.4 | 12.6 | 12.6 | 12.5 | 12 | 12.3
34 | TTGTAAAA [8-mer TTGTAAAA] | 12.3 | 12.5 | 12.5 | 10.6 | 11.3 | 11.6 | 12.2
35 | GGAGGCAC [8-mer GGAGGCAC] | 9.49 | 9.38 | 9.49 | 9.31 | 9.49 | 9.52 | 9.58
36 | CGAGGGTC [8-mer CGAGGGTC] | 9.24 | 9.3 | 9.41 | 9.08 | 9.33 | 9.23 | 9.32
37 | GTTTATGA [8-mer GTTTATGA] | 12.4 | 11.2 | 12.6 | 10.8 | 11.5 | 11.6 | 12.3
38 | CCAATAAA [8-mer CCAATAAA] | 13.1 | 11.7 | 13.3 | 10.8 | 11.8 | 12.4 | 13.1
39 | ATTTAATG [8-mer ATTTAATG] | 12.3 | 12 | 12.5 | 11.4 | 11.7 | 11.7 | 12.2
40 | CCATAAAA [8-mer CCATAAAA] | 12.8 | 11.6 | 13.1 | 10.6 | 11.4 | 12.2 | 12.7
41 | CGGCCTCC [8-mer CGGCCTCC] | 9.43 | 9.41 | 9.35 | 9.42 | 9.32 | 9.45 | 9.43
42 | ATTACTAA [8-mer ATTACTAA] | 11.1 | 10.8 | 11.3 | 11 | 11.1 | 10.6 | 10.9
43 | ATCGTAAA [8-mer ATCGTAAA] | 12.4 | 12.5 | 12.6 | 10.5 | 11 | 11.4 | 12.3
44 | CATATTAA [8-mer CATATTAA] | 12.2 | 11.5 | 12.5 | 11.9 | 12.3 | 11.6 | 12.2
45 | AGGACCGG [8-mer AGGACCGG] | 9.4 | 9.38 | 9.37 | 9.36 | 9.54 | 9.4 | 9.38
46 | CTCCTGCC [8-mer CTCCTGCC] | 9.72 | 9.53 | 9.55 | 9.72 | 9.59 | 9.62 | 9.53
47 | CTATTAAA [8-mer CTATTAAA] | 12.6 | 12 | 12.8 | 11.4 | 11.8 | 12.1 | 12.4
48 | CAATAAAC [8-mer CAATAAAC] | 12.6 | 11.1 | 12.9 | 10.7 | 11.6 | 11.9 | 12.7
49 | GCTATAAA [8-mer GCTATAAA] | 12.6 | 11.5 | 12.8 | 11.9 | 11.8 | 11.9 | 12.5
50 | ACACAATA [8-mer ACACAATA] | 11 | 10.6 | 11.1 | 10.5 | 10.8 | 10.5 | 10.9
51 | GCTTGGCC [8-mer GCTTGGCC] | 9.54 | 9.27 | 9.2 | 9.37 | 9.29 | 9.38 | 9.29
